Test results reported in PubChem BioAssay AID2451 (National Center for Advancing Translational Sciences (NCATS), 2010).
The campaign covered roughly 290,000 compounds. About 2,100 (0.72%) were called active. This list was built around the results that the source calls inconclusive (neither active nor inactive); the mix of calls is not that of the screen. Calls follow the shape of the dose curve; as a rule, active = well fitted inhibition curve with a large enough effect; inconclusive = small, poorly fitted or top-dose-only effect, or effect the other way; inactive = flat fitted curve, though single readings scatter. Potencies of inconclusive entries are doubtful fits and often do not repeat.

Each compound was assayed against Fructose-bisphosphate aldolase (Giardia intestinalis (strain ATCC 50803 / WB clone C6)) (UniProt A8B2U2) (assay: qHTS Assay for Inhibitors of Fructose-1,6-bisphosphate Aldolase from Giardia Lamblia). Details: purified Giardia FBPA; activity, negative = inhibition: at 59.6 µM (top of the series) unless noted.
Outline: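 Giardia FBPA (40 nM reagent) was preincubated 10 min at RT with compound (up to 57.5 uM final), then substrate plus GAPDH/TPI/NAD/arsenate coupling system with diaphorase/resazurin was added; resorufin fluorescence (525/598 nm) was read after 20 min.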
% is scaled to controls: 0 for no effect and ±100 for the full control effect; potency is read from the fitted curve at half-maximal effect; tags tell the direction and shape of the fitted curve.
Also: nearly all actives have a fitted effect of over 55% in size.

Chain of UniProt A8B2U2 (A8B2U2 whole entry, looked up): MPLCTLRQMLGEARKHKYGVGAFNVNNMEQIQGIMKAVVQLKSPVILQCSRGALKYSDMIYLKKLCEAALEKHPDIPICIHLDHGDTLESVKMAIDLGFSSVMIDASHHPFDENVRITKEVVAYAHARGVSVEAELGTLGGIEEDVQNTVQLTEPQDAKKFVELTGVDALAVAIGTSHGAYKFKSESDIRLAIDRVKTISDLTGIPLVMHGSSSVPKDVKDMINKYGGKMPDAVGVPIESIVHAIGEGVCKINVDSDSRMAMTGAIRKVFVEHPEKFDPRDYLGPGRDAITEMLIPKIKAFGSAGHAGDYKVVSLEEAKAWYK

SMILES	Potency	activity, negative = inhibition
O=C(OCC1OC(n2ncc(=O)[nH]c2=O)C(OC(=O)c2ccccc2)C1OC(=O)c1ccccc1)c1ccccc1 (configuration not stated)	inconclusive: 28.2 µM [inhibitor, partial curve]	–
Cc1ccc(-c2nc(CS(=O)CC(=O)NCCN(CC(C)C)CC(C)C)c(C)o2)cc1 (configuration not stated)	–	inconclusive: 33.6% [activator]
COc1cccc(C(=O)Nc2nnc(S(=O)(=O)N3CCCCC3)s2)c1	active: 17.8 µM	–
COc1cccc(-n2c(SCc3cc(=O)oc4cc(O)c(O)cc34)nc3ccccc3c2=O)c1	inconclusive: 2.81 µM [inhibitor, full curve]	–
CCCc1c(NC(=O)Nc2ccc(F)cc2)cnn1-c1ccccc1	–	inactive: -4.27%
CCCn1c(C(C)NS(=O)(=O)c2ccccc2)n[nH]c1=S (configuration not stated)	active: 10 µM	–
CCOC(=O)Cn1nnnc1CN(Cc1cccs1)Cc1cc2cc(C)cc(C)c2[nH]c1=O	inconclusive: 31.5 µM [inhibitor, single point]	–
COC(=O)CC1c2ccccc2C(Cc2ccc3c(c2)OCO3)=C(C)N1C(=O)OC (configuration not stated)	inactive	–
Cc1cc(C)c2nc(NNC(=O)c3ccc(S(=O)(=O)N4CCCC(C)C4)cc3)sc2c1 (configuration not stated)	inconclusive: 17.7 µM [inhibitor, single point]	–
CCOc1ccc(OCCn2ccnc2)cc1	inconclusive: 22.3 µM [inhibitor, partial curve]	–
CCOc1cccc(C(=O)Nc2ccccc2N2CCN(C(=O)C(C)C)CC2)c1	–	inactive: 6.94%
CCOC(=O)c1c[nH]c2c(Cl)ccc(Cl)c2c1=O	–	inactive: 1.79%
O=C(Cc1cccs1)Nc1cccc([N+](=O)[O-])c1	–	inactive: -4.51%
O=C(O)CC(Cn1[nH]nnc1=S)c1ccccc1 (configuration not stated)	active: 15.8 µM	–
COc1ccccc1OCCOc1ccc(C(=O)c2ccccc2)cc1	–	inactive: 1.3%
COc1ccc(-c2ccc(/C=C3/C(=N)N4C=CSC4=NC3=O)o2)c([N+](=O)[O-])c1	inconclusive: 1.58 µM [inhibitor, full curve]	–
Cc1cc(=O)n2[nH]c(NCc3ccccc3F)nc2n1	inconclusive: 15.8 µM [inhibitor, single point]	–
CCOC(=O)C1=CCN(Cc2ccccc2)CC1	inconclusive: 22.4 µM [inhibitor, single point]	–
COc1ccc(C(=O)C[n+]2ccc3c(c2)nc(-c2cc(OC)c(OC)cc2OC)n3C)cc1	–	inactive: 2.14%
O=S(=O)(Nc1cc(O)cc2cccnc12)c1ccc(Br)s1	active: 3.15 µM	–
OCC1(Cc2ccccc2)CCN(Cc2cnc(-c3cccc4ccccc34)nc2)CC1	–	inactive: -7.03%
C=CCn1c(-c2cccnc2)n[nH]c1=S	inconclusive: 7.06 µM [inhibitor, single point]	–
O=C1C=CC(=O)C(Cl)=C1	inconclusive: 44.6 µM [inhibitor, single point]	–
CSc1ccc(-c2sc(Nc3ccccc3)n[n+]2-c2ccccc2)cc1	active: 25.1 µM	–

SMILES	Potency	activity, negative = inhibition
C/C(CCc1ccc2c(c1)OCO2)=N\N=C(/N)SC1CC(=O)N(c2ccccc2F)C1=O (configuration not stated)	inconclusive: 22.3 µM [inhibitor, single point]	–
NCC(=O)Nc1ccc(Cl)cc1C(=O)c1ccc[nH]1	inconclusive: 22.3 µM [inhibitor, partial curve]	–
CCOc1ccccc1N1CCN(S(=O)(=O)c2ccc3c4c(cccc24)C(=O)N3)CC1	inconclusive: 17.7 µM [inhibitor, partial curve]	–
Cn1c(O)c(C(=Nc2ccccc2)SCc2ccccc2Cl)c(=O)n(C)c1=O	inconclusive: 22.3 µM [inhibitor, single point]	–
Cc1ccn2c(-c3csc(NCc4ccccc4)n3)c(C)nc2c1	inconclusive: 14.1 µM [inhibitor, partial curve]	–
COC(=O)c1cc(NC(=S)Nc2cc(Cl)cc(Cl)c2)cc(C(=O)OC)c1	inconclusive: 28.1 µM [inhibitor, partial curve]	–
O=C(NCc1nc2ccccc2[nH]1)C1=C[C@@H](C2CCCCC2)C[C@@H](OCc2ccc(CO)cc2)O1	–	inactive: -1.25%
COc1ccc(/C(N)=N/OC(=O)CSc2ccccc2)cc1OC	–	inactive: -3.2%
COc1ccc(OC)c(C(=O)c2nc3c(n2O)CCCCC3)c1	inconclusive: 15.8 µM [inhibitor, single point]	–
O=C(Nc1sc2c(c1C(=O)O)CCC2)c1ccccc1F	inconclusive: 28.2 µM [inhibitor, single point]	–
O=C(/C=C/c1ccccc1)NCCSCc1ccc(Cl)cc1	–	inactive: 5.31%
O=C(NC(=S)NNC(=O)c1ccccc1O)c1ccccc1	inconclusive: 28.2 µM [activator, partial curve]	–
CCc1cc2c(=O)c(-c3nc4ccccc4n3C)c(COCC(=O)O)oc2cc1O	–	inactive: -8.11%
CCc1cc[n+](C2=C([O-])c3ccccc3C(=O)/C2=N\S(=O)(=O)c2cccs2)cc1	inconclusive: 0.354 µM [inhibitor, full curve]	–
Cc1cc(C)c(S(=O)(=O)Nc2cccc(S(=O)(=O)NC3=NCCC3)c2)c(C)c1	–	inactive: -11.5%
O=C(O)[C@@H](O)[C@@H](O)[C@H](O)[C@H](O)CO	inconclusive: 14.1 µM [inhibitor, partial curve]	–
CC(C)(CCCCCCCCCCC(C)(C)CC(=O)O)CC(=O)O	inconclusive: 17.7 µM [activator, single point]	–
CCCOC1CCCN(C(=O)c2ccc(OC3CCN(Cc4ccccn4)CC3)cc2)C1 (configuration not stated)	inconclusive: 12.6 µM [inhibitor, partial curve]	–
CCN(C(=O)C(C)N1C(=O)/C(=C/c2ccco2)SC1=S)C1CCS(=O)(=O)C1 (configuration not stated)	inconclusive: 14.1 µM [inhibitor, partial curve]	–
CCc1c(C(=O)NNC(=S)Nc2ccc(S(=O)(=O)Nc3ncccn3)cc2)csc1C	inconclusive: 2.51 µM [inhibitor, partial curve]	–
CC(C)(CO)[C@H](O)C(=O)NCCC(=O)O	–	inactive: -1.69% [at 21.7 µM]
CCc1nnc(NC(=O)CSc2nc(C)cs2)s1	inconclusive: 28.2 µM [inhibitor, partial curve]	–
COc1ccc(C(c2oc(CO)cc(=O)c2O)c2oc(CO)cc(=O)c2O)cc1OC	inconclusive: 22.3 µM [inhibitor, single point]	–
